The values below come from the RNAGym collection of RNA variant scans (doi:10.1093/nar/gkz1192).

Read counts are not given, so values of variants with three or more changes are uncertain.

B1: CPEB3 Ribozyme (parent)
chain: UAACAGGGGGCCACAGCAGAAGCGUUCACGUCGCAGCCCCUGUCAGAUUCUGGUGAAUCUGCGAAUUCUGCUGUAUAUCUC

In this data set the parent is B1. As to the kind of experiment: self-cleavage, relative activity (ratio to wild type); higher = more cleavage; in vitro, sequencing. In short, it runs like this: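 Barcoded CPEB3 ribozyme mutants, produced by rounds of error-prone PCR, self-cleaved while being transcribed with T7 RNA polymerase for 5 hours at 37°C and during a subsequent 15 min DNase I step before EDTA was added. Sequencing of template-switched cDNA on Illumina gave cleaved and total reads, and DNA sequencing assigned barcodes to variants. Each variant's relative activity is its cleaved/total read fraction divided by the unmutated ribozyme's fraction, averaged across three batches. A variant needed a minimum of 5 reads.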
Consider UAACAGGGGGCCUCAGCAGAAGCGUUCACGUCGCAGCCCCUGUCGGAUUCUGGGGAAUCUGCGAAUUCUGCUGUAUAUCUC, for which the self-cleavage was found to be 0.79.
Then UAACAGGGGGCCUCAGCAGAAGCGUUCACGUCGCAGCCCCUGUCUGAUUCUAGUGAAUCUCCGAAUUCUGCUGUAUAUCUC, with 0.18; and UAACAGGGGGCCUCAGCAGAAGCGUUCACGUCGCAGCCCCUGUCGGAUUCUGGUGAAUCUGCGAAUUAUGCUGUAUAUCUC, with 0.43.
Then UAACAGGGGGCCUCAGCAGAAGCGUUCACGUCGCAGCCCCUGUCGGAAUCUGGUGAAUCUGCGAAUUCUGCUGUAUACCUC, with 0.18.
For the variant UAACAGGGGGCCUCAGCAGAAGCGUUCACGUCGCAGCCCCUGUCUGAUUCUGGUGAAUCUGCGAAUUCUGCUGUAUAACUC, the self-cleavage came to 0.6.
For UAACAGGGGGCCUCAGCAGAAGCGUUCACGUCGCAGCCCCUGUCGGAUUCUGGUGAAUCUGCGAAUACUGCUGUACAUCUC the value was 0.73.
Then UAACAGGGGGCCUCAGCAGAAGCGUUCACGUCGCAGCCCCUGUCGGAUUCUGGUGAAUCUGCGAGUUCUGCAGUAUAUCUC, with 0.26; and UAACAGGGGGCCUCAGCAGAAGCGUUCACGUCGCAGCCCCUGUCUGAAUCUGGUGAGUCCGCGAAUUCUGCUGUAUAUCUC, with 0.07; and UAACAGGGGGCCUCAGCAGAAGCGUUCACGUCGCGGCCCCUGUCAGAUUCCGGUGAAUCUGCGAAUUCCGCUGUAUAUCUC, with 1.1.
As to UAACAGGGGGCCUCAGCAGAAGCGUUCACGUCGCAGCCCCUGUCGGAAUCUGGUGAAUCAGCGAAUUCUGCUGUAUAUCUC, the self-cleavage turned out to be 0.06.
For UAACAGGGGGCCUCAGCAGAAGCGUUCACGUCGCAGCCCCUGUCUGAUUCUGGUGAAUCUGCGAAUUCCGCUGUAUAUCUC the value was 0.25; for UAACAGGGGGCCUCAGCAGAAGCGUUCACGUCGCUGCCCCUGUCAGAUUCUGGUGAAUCUGCGAAUUCUGCUGUAAAUCUC, 1.12; for UAACAGGGGGCCUCAGCAGAAGCGUUCACGUCGCAGCCCCUGUCGGAUUCUGGUGAAUCUGCGAGUUCUGCUGUAUAUCUC, 0.39.
Consider UAACAGGGGGCCUCAGCAGAAGCGUUCACGUCGCAGCCCCUGUCAGCUUCGGGUGAGUCUGCGAAUUCUGCUGUAUAUCUC, for which the self-cleavage was determined as 0.21.
For UAACAGGGGGCCUCAGCAGAAGCGUUCACGUCGCUGCCCCUGUCAGAUCCUGGUGAAUCUGCGAAUACUGCUGUAUAUCUC the value was 0.11; for UAACAGGGGGCCUCAGCAGAAGCGUUCACGUCGCUGCCCCUGUCUGAUUCUGGUGAAUCUGCGAAUUCUGCUGUAUAUCUC, 0.19.
Regarding UAACAGGGGGCCUCAGCAGAAGCGUUCACGUCGCAGCCCCUGUCGGAUUCCGGUGAAUCCGCGAAUUCUGCUGUAUAUCUC, the self-cleavage was determined as 1.25.
For UAACAGGGGGCCUCAGCAGAAGCGUUCACGUCGCUGCCCCUGUCAGAUUCUGGUGUAUCUGCGAACUCUGCUGUAUAUCUC the value was 0.09.
With UAACAGGGGGCCUCAGCAGAAGCGUUCACGUCGCUGCCCCUGUCAGAUUCUGGGGAAUCUGCGAAUUCUGCUGUUUAUCUC, the self-cleavage amounted to 0.66.
UAACAGGGGGCCUCAGCAGAAGCGUUCACGUCGCGGCCCCUGUCAGAUUCCGGUGAAUCUGCGAAUUCUGCUGUAUAUCUC: the self-cleavage turned out to be 1.23.
Then UAACAGGGGGCCUCAGCAGAAGCGUUCACGUCGCGGCCCCUGUCAGAUUCUGGUGAAUCUGCGAAUCCUGCUGUAUAUCUC, with 0.65; and UAACAGGGGGCCUCAGCAGAAGCGUUCACGUCGCAGCCCCUGUCUGAUUCUGGUGAACCUGCGAAUCCUGCUGUAUAUCUC, with 0.17.
Then UAACAGGGGGCCUCAGCAGAAGCGUUCACGUCGCAGCCCCUGUCCGAUUCUGGUGAAUCUGCGAGUUCUGCUGUAUAUCUC, with 0.2.
Then UAACAGGGGGCCUCAGCAGAAGCGUUCACGUCGCAGCCCCUGUCGGGUUCUGGUGAAUCUGCGGAUUCUGCUGUAUAUCUC, with 0.25; and UAACAGGGGGCCUCAGCAGAAGCGUUCACGUCGCGGCCCCUGUCAGAUUCUGGUGAACCUGCGAAUUCUGCUGUAUAUCUC, with 1.24.
On to UAACAGGGGGCCUCAGCAGAAGCGUUCACGUCGCAGCCCCUGUCGGAUUCUGGUGAAUCUGCGAACUCUGCUGUAUAUCUC, for which the self-cleavage was determined as 0.26.
Consider UAACAGGGGGCCUCAGCAGAAGCGUUCACGUCGCUGCCCCUGUCAGAUACUGGUGAAUCUGCGAAUUCUGCUGUAUAUCUC, for which the self-cleavage amounted to 0.23.
Then UAACAGGGGGCCUCAGCAGAAGCGUUCACGUCGCAGCCCCUGUCGGAUUCUGGUGAGUCCGCGAAUUCUGCUGUAUAUCUC, with 1.06; and UAACAGGGGGCCUCAGCAGAAGCGUUCACGUCGCAGCCCCUGUCUGAAUCUGGUGGAUCUGCGAAUACUGCUGUAUAUCUC, with 0.31.
For UAACAGGGGGCCUCAGCAGAAGCGUUCACGUCGCUGCCCCCGUCAGAUUCUGGUGAAUCUGCGAAUCCAGCGGUAUAUCUC the value was 0.16; for UAACAGGGGGCCUCAGCAGAAGCGUUCACGUCGCAGCCCCUGUCAGGUUCUGGUGAAUCUGCGGAUUCUGCUGUAUAUCUC, 0.9; for UAACAGGGGGCCUCAGCAGAAGCGUUCACGUCGCAGCCCCUGUCUGAUUCUGGUGAAUCCGCGAAUCCUGCUGUAUAUCUC, 0.22.
Then UAACAGGGGGCCUCAGCAGAAGCGUUCACGUCGCAGCCCCUGUCGGAUUCUGGUGAGUCUGCGGAUUCUGCUGUAUAUCUC, with 0.62; and UAACAGGGGGCCUCAGCAGAAGCGUUCACGUCGCAGCCCCUGUCUGAUUCUGGUGAAUCUGUGAAUUCUGCUGUAUAUCUC, with 0.17.
